# About 7,200 (1.8%) of roughly 410,000 compounds were called active. This list was built around the results that the source calls inconclusive (neither active nor inactive); the mix of calls is not that of the screen. Calls come from the whole dose curve; as a rule, active = well fitted activation curve with a large enough effect; inconclusive = small, poorly fitted or top-dose-only effect, or another doubt; inactive = no such curve, though single readings can be large or run the other way. No potency is given beside an inconclusive call; the fits are too rough.
# Assay: qHTS of TDP-43 Inhibitors; note: nearly all actives have a fitted effect of over 50% in size; for growth rescue (activation): % of control where 0% means no effect
# Conditions: TDP-43 expressing yeast growth rescue, BacTiter-Glo, 24 h; growth rescue (activation): at 46.1 µM (top of the series) unless noted
# Summary of the method: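 Galactose-induced TDP-43 yeast, OD600=0.02, compound pinned; 24 hr, 30 deg C; BacTiter-Glo luminescence for growth. Inhibitors of TDP-43 toxicity read as activators.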
# Potency is the fitted concentration of half-maximal effect; tags give direction and shape of the fitted curve.
Compound,Potency,growth rescue (activation)
O=C(NC(=S)Nc1ccccc1N1CCCCC1)c1ccccc1,active: 11.2 µM,–
CC(C)N(Cc1nc(-c2ccc(Cl)cc2)no1)C(=O)c1cccs1,"inconclusive [activator, single point]",–
Clc1ccccc1/C=N/c1cc(-c2ccccc2)nn1-c1ccccc1,"inconclusive [activator, single point]",–
Cc1ccc(Cl)cc1NC(=O)CN1C(=O)COc2ccc(S(=O)(=O)N3CCCCCC3)cc21,"inconclusive [activator, full curve, poor fit]",–
CCOc1ncccc1C(=O)OCC(=O)c1ccc(Br)s1,"inconclusive [activator, single point]",–
O=C(Nc1nnc(Cc2ccccc2F)s1)c1ccccc1Cl,"inconclusive [activator, full curve, poor fit]",–
Cc1cc(OCC(=O)N(Cc2ccc(N(C)C)cc2)C2CCS(=O)(=O)C2)cc(C)c1Cl (stereo unspecified),inactive,–
NC(=O)c1ccccc1NC(=O)COC(=O)CSCc1cccc(Cl)c1,"inconclusive [activator, single point]",–
N#CCC(CNc1ncc(C(F)(F)F)cc1Cl)OC(=O)c1cccc([N+](=O)[O-])c1 (stereo unspecified),"inconclusive [activator, single point]",–
COc1ccc(-c2csc3ncnc(N4CCN(c5ccccc5)CC4)c23)cc1,active: 11.2 µM,–
C#CCNC(=O)C1=C[C@H](c2ccc(Br)cc2)C[C@H](OCc2ccc(CO)cc2)O1,"inconclusive [activator, full curve, poor fit]",–
O=C(/C=C/c1ccc(Cl)c([N+](=O)[O-])c1)c1cccnc1,active: 3.16 µM,–
CCc1cc(=O)[nH]c(SC/C=C/c2ccccc2)n1,"inconclusive [activator, partial curve]",–
COc1cc(-c2ccc3cc(OC)c(OC)c(OC)c3c2)cc(OC)c1OC,"inconclusive [activator, single point]",–
COc1ccc(CCNC(=O)c2ccc(Cn3c(=O)c4ccccc4n(Cc4ccc(C)cc4)c3=O)cc2)cc1OC,inactive,–
Cc1ccc2nc(CN3CCN(C(=O)Nc4ccc(C)c(F)c4)CC3)oc2c1,"inconclusive [activator, single point]",–
Cc1cccc(C(=O)Nc2ccccc2C(=O)OCc2c(C)noc2C)c1,"inconclusive [activator, single point]",–
Cc1ccc(C)c(NC(=O)CCc2c(C)nn(-c3ccc(N4CCCC4)nn3)c2C)c1,inactive,–
Cc1c2n(c3ccccc13)CCC2=O,"inconclusive [activator, single point]",–
C=CCn1c(C)cc(C(=O)CSc2nnc(NC(C)C)s2)c1C,inactive,–
CCCOc1ccc(-c2nc(N3CCC(C)CC3)c3ccccc3n2)cc1,"inconclusive [activator, partial curve]",–
CCCn1c2ccccc2c2cnn(CC(=O)N(Cc3ccccc3)C(C)C)c(=O)c21,inactive,–
Cc1csc2ncnc(N3CCN(S(=O)(=O)c4cccc(C(F)(F)F)c4)CC3)c12,active: 17.8 µM,–

Compound,Potency,growth rescue (activation)
COc1ccc2c(CNCCc3cccs3)c(C(=O)O)n(Cc3ccccc3C)c2c1,inactive,–
Cc1cccc(N2CCN(C(=O)C3CCN(S(=O)(=O)c4c(C)noc4C)CC3)CC2)c1C,"inconclusive [activator, single point]",–
COc1ccc(-c2noc(N3CCC(C(=O)N(C)c4cc(Cl)ccc4OC)CC3)n2)cc1,"inconclusive [activator, single point]",–
CCN(CC)c1ccc(NC(=O)Nc2ccccc2C(F)(F)F)cc1,inactive,–
O=C(c1ccccc1)c1ccc(COC(=O)c2cnccn2)cc1,"inconclusive [activator, partial curve]",–
COc1ccc(COc2cccc(C=O)c2)cc1,"inconclusive [activator, single point]",–
COc1ccccc1C(=O)c1cn(CC(=O)Nc2ccccc2F)c2nc(C)ccc2c1=O,inactive,–
COC(=O)CCCN1C(=O)c2cccc3cccc(c23)C1=O,"inconclusive [activator, single point]",–
CCc1nc(N2CCCC2)c(C#N)c2c1CCCC2,inactive,–
N#Cc1c(/N=C/c2ccco2)sc2c1CCCCC2,"inconclusive [activator, single point]",–
O=[N+]([O-])c1ccc(CN2CC(N3CC=CC3)CS2(=O)=O)cc1 (stereo unspecified),"inconclusive [activator, partial curve]",–
COc1ccc2c(c1)C1=NN(/C(C)=C/C(C)=O)C(c3cccc(F)c3)C1CC2 (stereo unspecified),"inconclusive [activator, partial curve]",–
Cc1ccc(Nc2ncc(C(=O)N3CCN(c4cccc(Cl)c4)CC3)c3ccccc23)cc1Cl,active: 15.8 µM,–
COc1ccc(NC(=O)C2Cc3c(-c4ccccc4Oc4ccccc4)ccnc3O2)cn1 (stereo unspecified),"inconclusive [activator, single point]",–
Cc1ccc(NC(=S)/N=C(\N)Nc2nc(C)c3ccccc3n2)cc1C,inactive,–
O=C(CCC(=O)c1cccs1)OCc1ccc([N+](=O)[O-])cc1,active: 11.2 µM,–
COCC(C)n1c(C)cc(C(=O)CSc2nnc(Nc3ccccc3F)s2)c1C (stereo unspecified),"inconclusive [activator, single point]",–
CCOC(=O)c1c(N2C(=O)C=CC2=O)sc(C)c1C,–,inconclusive: -92.2% [activator]
COc1ccc(N2CCN(c3nc(-c4cccs4)nc4ccccc34)CC2)cc1,active: 12.6 µM,–
O=C(Nc1cc(C(F)(F)F)ccc1Cl)c1cnn(-c2ccccc2)c1-n1cccc1,inactive,–
COc1ccccc1-c1cc(NC=O)c2ncc(-c3cccc(C(C)=O)c3)n2c1,active: 17.8 µM,–
COc1ccc(-n2c(=O)c3sc4ccccc4c3n(CC(=O)NC3CCCCC3)c2=O)cc1,inactive,–
O=C(COC(=O)Cc1ccsc1)Nc1cccc(F)c1,"inconclusive [activator, partial curve]",–
